In patent US20090214547A1:
Where “and” joins values, the source holds several entries; their conditions need not be identical. Identical values can stand only once.

Columns and labels:
PLY Peptide 10146 [1] = assay: peptide ELISA, plate 1
Peptide GNT-01 [2] = assay: peptide ELISA, plate 1
Peptide GNT-02 [3] = assay: peptide ELISA, plate 1
Peptide GNT-08 [4] = assay: peptide ELISA, plate 1
Peptide GNT-13 [5] = assay: peptide ELISA, plate 1
Peptide GNT-14 [6] = assay: peptide ELISA, plate 1
PsaA Peptide 9144 [7] = assay: peptide ELISA, plate 1
Peptide GNT-03 [8] = assay: peptide ELISA, plate 2
Peptide GNT-04 = assay: peptide ELISA, plate 2
Peptide GNT-06 [9] = assay: peptide ELISA, plate 2
Peptide GNT-062 = assay: peptide ELISA, plate 2
Peptide GNT-08 [10] = assay: peptide ELISA, plate 2
Peptide GNT-09 [11] = assay: peptide ELISA, plate 2
Peptide GNT-10 = assay: peptide ELISA, plate 2
Peptide GNT-13 [12] = assay: peptide ELISA, plate 2
Peptide GNT-14 [13] = assay: peptide ELISA, plate 2
PsaA Peptide 9144 [14] = assay: peptide ELISA, plate 2
PLY Peptide 10146 [15] = assay: peptide ELISA, plate 1 overview
Peptide GNT-01 [16] = assay: peptide ELISA, plate 1 overview
Peptide GNT-02 [17] = assay: peptide ELISA, plate 1 overview
Peptide GNT-07 [18] = assay: peptide ELISA, plate 1 overview
PsaA Peptide 9144 [19] = assay: peptide ELISA, plate 1 overview
PLY Peptide 10146 [20] = assay: peptide ELISA, plate 2 overview
Peptide GNT-01 [21] = assay: peptide ELISA, plate 2 overview
Peptide GNT-02 [22] = assay: peptide ELISA, plate 2 overview
Peptide GNT-03 [23] = assay: peptide ELISA, plate 2 overview
Peptide GNT-06 [24] = assay: peptide ELISA, plate 2 overview
Peptide GNT-07 [25] = assay: peptide ELISA, plate 2 overview
Peptide GNT-09 [26] = assay: peptide ELISA, plate 2 overview
PsaA Peptide 9144 [27] = assay: peptide ELISA, plate 2 overview

B1: 26-5F12.1 (antibody, V domains shown)
VH: VKLQESGAEVKKPGASVKVSCTASGYIFTSYAIHWVRQAPGQRLEWMGWINAGYGNTKYSQKFQGRVSITRDKSASTAYMELSSLRSEDTAVYYCARRGQQLAFDYWGQGTTVTVSS
VL: [about 100 residues omitted here]
**Q.** With B1 as the binder, how does the Elisa reading (PLY Peptide 10146 [1]) read?
**A.** The Elisa reading was 2.56 and 3.

**Q.** What about the Elisa reading (Peptide GNT-01 [2]) of the same binder?
**A.** Its Elisa reading is 1.68 and 2.98 and 3.

**Q.** What about the Elisa reading (Peptide GNT-02 [3]) of the same binder?
**A.** Its Elisa reading is 3.

**Q.** What about the Elisa reading (Peptide GNT-08 [4]) of the same binder?
**A.** The Elisa reading was 1.23 and 0.89 and 1.09.

**Q.** What about the Elisa reading (Peptide GNT-13 [5]) of the same binder?
**A.** The Elisa reading was 0.09.

**Q.** And the Elisa reading (Peptide GNT-14 [6])?
**A.** The Elisa reading was 0.08 and 0.09.

**Q.** What about the Elisa reading (PsaA Peptide 9144 [7]) of the same binder?
**A.** The Elisa reading was 0.09 and 0.08 and 0.07.

**Q.** What about the Elisa reading (Peptide GNT-03 [8]) of the same binder?
**A.** The Elisa reading was 2.81.

**Q.** What about the Elisa reading (Peptide GNT-04) of the same binder?
**A.** Its Elisa reading is 0.262.

**Q.** And the Elisa reading (Peptide GNT-06 [9])?
**A.** Its Elisa reading is 0.104.

**Q.** What about the Elisa reading (Peptide GNT-062) of the same binder?
**A.** Its Elisa reading is 0.107.

**Q.** What about the Elisa reading (Peptide GNT-08 [10]) of the same binder?
**A.** The Elisa reading was 0.761.

**Q.** What about the Elisa reading (Peptide GNT-09 [11]) of the same binder?
**A.** Its Elisa reading is 0.293.

**Q.** And the Elisa reading (Peptide GNT-10)?
**A.** The Elisa reading was 0.09.

**Q.** What about the Elisa reading (Peptide GNT-13 [12]) of the same binder?
**A.** The Elisa reading was 0.09.

**Q.** What about the Elisa reading (Peptide GNT-14 [13]) of the same binder?
**A.** Its Elisa reading is 0.092.

**Q.** What about the Elisa reading (PsaA Peptide 9144 [14]) of the same binder?
**A.** Its Elisa reading is 0.069.

**Q.** And the Elisa reading (PLY Peptide 10146 [15])?
**A.** Its Elisa reading is 2.56.

**Q.** What about the Elisa reading (Peptide GNT-01 [16]) of the same binder?
**A.** Its Elisa reading is 1.68.

**Q.** What about the Elisa reading (Peptide GNT-02 [17]) of the same binder?
**A.** The Elisa reading was > 3.

**Q.** What about the Elisa reading (Peptide GNT-07 [18]) of the same binder?
**A.** Its Elisa reading is 0.21.

**Q.** And the Elisa reading (PsaA Peptide 9144 [19])?
**A.** Its Elisa reading is 0.09.

**Q.** And the Elisa reading (PLY Peptide 10146 [20])?
**A.** Its Elisa reading is > 3.

**Q.** And the Elisa reading (Peptide GNT-01 [21])?
**A.** The Elisa reading was > 3.

**Q.** What about the Elisa reading (Peptide GNT-02 [22]) of the same binder?
**A.** The Elisa reading was > 3.

**Q.** What about the Elisa reading (Peptide GNT-03 [23]) of the same binder?
**A.** The Elisa reading was 2.81.

**Q.** What about the Elisa reading (Peptide GNT-06 [24]) of the same binder?
**A.** The Elisa reading was 0.1.

**Q.** What about the Elisa reading (Peptide GNT-07 [25]) of the same binder?
**A.** Its Elisa reading is 0.13.

**Q.** What about the Elisa reading (Peptide GNT-09 [26]) of the same binder?
**A.** Its Elisa reading is 0.29.

**Q.** And the Elisa reading (PsaA Peptide 9144 [27])?
**A.** The Elisa reading was 0.07.
